{
  "source": "paper PMC7819943",
  "about": "“Rice protein-binding microarrays: a tool to detect cis-acting elements near promoter regions in rice”",
  "note": "Some of the results follow.",
  "data": [
    {"biological_target": "T1, OsWOX13 (Oryza sativa, UniProt Q5QMM3 1-267)", "T1 sequence": "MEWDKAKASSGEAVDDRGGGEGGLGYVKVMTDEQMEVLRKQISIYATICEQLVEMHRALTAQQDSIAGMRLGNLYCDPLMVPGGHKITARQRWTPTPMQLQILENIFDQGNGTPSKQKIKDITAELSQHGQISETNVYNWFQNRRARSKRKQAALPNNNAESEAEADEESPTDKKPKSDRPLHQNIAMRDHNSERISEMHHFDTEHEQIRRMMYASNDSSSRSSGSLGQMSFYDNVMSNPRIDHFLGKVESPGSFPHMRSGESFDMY", "experiment": "protein-binding microarray (RPBM); PBS, 2% BSA, 51.3 ng/ul salmon testes DNA, 50 uM zinc acetate, 200 nM TF, 25 C, 1 h; high values mean tight binding", "conditions": "protein: recombinant; tags: N-terminal polyhistidine and DsRed monomer fusion (pET32a); label: CyDye5-dUTP incorporated in the synthesized complementary strand; 3' TTTTT single-stranded linker to array surface; dsDNA, one strand shown", "method_in_brief": "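Transcription factors were each fused at the N-terminus to a polyhistidine tag plus DsRed and expressed in E. coli BL21-CodonPlus before Ni–NTA purification. Binding to a double-stranded custom Agilent array was carried out with 200 nM protein at 25 °C for 1 h in PBS, 2% BSA, salmon testes DNA and 50 µM zinc acetate. The binding signal is per-feature fluorescence intensity, in arbitrary units, on an Axon 4000B scanner.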", "values": [
      {"sequence": "ATGGTCCCTCTGGCTCGTTAATTGATGAGACAAGTATAGCCGGAGTCACCTAGTGCAG", "binding signal": "15500 fluorescence intensity (a.u.)"},
      {"sequence": "TAGTTATAACACCAATCAAATAAATACTGTAAAACTAATACGGAGTCACCTAGTGCAG", "binding signal": "7010 fluorescence intensity (a.u.)"},
      {"sequence": "CCTGGTTTGATGGACTCTTATTATTTTATCTCGTGCTCATCGGAGTCACCTAGTGCAG", "binding signal": "4370 fluorescence intensity (a.u.)"},
      {"sequence": "GCGGTGGTATAATCATCATTTAGAAGTGACTAAACCCATTCGGAGTCACCTAGTGCAG", "binding signal": "3340 fluorescence intensity (a.u.)"},
      {"sequence": "TTCTTTAATTTGTAGGAATAACATTATGGAGGACTTTAATCGGAGTCACCTAGTGCAG", "binding signal": "11600 fluorescence intensity (a.u.)"},
      {"sequence": "GCTGATTACTACTCCTTTTGTTATGTTTTCCTCCTCCTCTCGGAGTCACCTAGTGCAG", "binding signal": "40600 fluorescence intensity (a.u.)"},
      {"sequence": "TCGGATTGATCGTCAAATTAAGGGACATCAAATGAACTTACGGAGTCACCTAGTGCAG", "binding signal": "25100 fluorescence intensity (a.u.)"},
      {"sequence": "TTTATAACATTGTTAATTGATTAGGCATGCAATGCCATATCGGAGTCACCTAGTGCAG", "binding signal": "32300 fluorescence intensity (a.u.)"},
      {"sequence": "CCGCATTGGTGGTAATTAGATTTGGTACTACCACTGTCCCCGGAGTCACCTAGTGCAG", "binding signal": "9050 fluorescence intensity (a.u.)"},
      {"sequence": "CATTGATGAACTTGACTTAATTAACGTGCACGTACCTTAACGGAGTCACCTAGTGCAG", "binding signal": "14500 fluorescence intensity (a.u.)"},
      {"sequence": "AATGATGATATAATTAATACGTAGAAGATGTTTGCTGGAACGGAGTCACCTAGTGCAG", "binding signal": "40900 fluorescence intensity (a.u.)"},
      {"sequence": "GACATGATAGCGCAAAATTTGACAGCATTGTCCATTTCCACGGAGTCACCTAGTGCAG", "binding signal": "8060 fluorescence intensity (a.u.)"},
      {"sequence": "TGGATAATTACGGGGATGCATCCCGAAATCCAGCGTGAAACGGAGTCACCTAGTGCAG", "binding signal": "6590 fluorescence intensity (a.u.)"},
      {"sequence": "CACACTGATTAACACTGCACATGCATTATTATATATTCGACGGAGTCACCTAGTGCAG", "binding signal": "15100 fluorescence intensity (a.u.)"},
      {"sequence": "GATTCGATGGGTTGTTGATTGGAGGAGAGCCTCGGGAGGGCGGAGTCACCTAGTGCAG", "binding signal": "17300 fluorescence intensity (a.u.)"},
      {"sequence": "AAATCAATTACTAGTGCGCGGTTTGTTGAGGAAAAGGCAACGGAGTCACCTAGTGCAG", "binding signal": "6960 fluorescence intensity (a.u.)"},
      {"sequence": "CATGACTGCATCGATCTATTCAACAGCTATAAATCCGAGGCGGAGTCACCTAGTGCAG", "binding signal": "7400 fluorescence intensity (a.u.)"},
      {"sequence": "TAAAATTGACATATAAAATCTCAACACCCTAGTTTCACTCCGGAGTCACCTAGTGCAG", "binding signal": "34200 fluorescence intensity (a.u.)"},
      {"sequence": "AAAATTATTAACTTCTTGTTTCGATCACCCTAATAAATAGCGGAGTCACCTAGTGCAG", "binding signal": "4280 fluorescence intensity (a.u.)"},
      {"sequence": "CCATCAAATATAAATTAGCATCACATAAAAGTACTTCAAACGGAGTCACCTAGTGCAG", "binding signal": "8000 fluorescence intensity (a.u.)"},
      {"sequence": "GTAACAGTTAATGCTAAAATGATAGTAGCATGATATCGTACGGAGTCACCTAGTGCAG", "binding signal": "4570 fluorescence intensity (a.u.)"},
      {"sequence": "AAGAACAGATCGCATCAATCAAACCGCCGGATCAAACCGGCGGAGTCACCTAGTGCAG", "binding signal": "4400 fluorescence intensity (a.u.)"},
      {"sequence": "AATCTAATGGGCAAGAGACTGGCTAAGCCCAGTACGCGGCCGGAGTCACCTAGTGCAG", "binding signal": "4240 fluorescence intensity (a.u.)"},
      {"sequence": "TCAAAATTAGAAGTTTGAAGAAATTGGAACGATGTGATGGCGGAGTCACCTAGTGCAG", "binding signal": "7940 fluorescence intensity (a.u.)"},
      {"sequence": "ACGTGATAGCGGATCACAAAATTTTAAATGTTTCGTTGACCGGAGTCACCTAGTGCAG", "binding signal": "5590 fluorescence intensity (a.u.)"},
      {"sequence": "AATCCAAGAAATCAATCAATCACGCAACTGCATCATGATACGGAGTCACCTAGTGCAG", "binding signal": "29400 fluorescence intensity (a.u.)"},
      {"sequence": "TAAATTTGTGATAAAACAAATTATCGAATGTTTTAGTATTCGGAGTCACCTAGTGCAG", "binding signal": "5290 fluorescence intensity (a.u.)"},
      {"sequence": "ATCCACCAATCACATACTAAGCTTGTTTCTTACCATACGGCGGAGTCACCTAGTGCAG", "binding signal": "17000 fluorescence intensity (a.u.)"},
      {"sequence": "CCATTTGATTTTGAATTCGCCAAGAGCCAGCAACAGCGCCCGGAGTCACCTAGTGCAG", "binding signal": "5030 fluorescence intensity (a.u.)"},
      {"sequence": "GTTACCATGTGACTATCAATTGATAGGTCTCACTAAAAGACGGAGTCACCTAGTGCAG", "binding signal": "5930 fluorescence intensity (a.u.)"},
      {"sequence": "GTTGAGGGGATGGGATGGGATGGGATGGGACGAACTCACTCGGAGTCACCTAGTGCAG", "binding signal": "4920 fluorescence intensity (a.u.)"},
      {"sequence": "ATGTGACGTAAATTAGACTCAAAAGATTCGTCTCGCGATTCGGAGTCACCTAGTGCAG", "binding signal": "17400 fluorescence intensity (a.u.)"},
      {"sequence": "CATGATTTGAAATTTGTCAAACAAAGCCTTATTGTTCTTACGGAGTCACCTAGTGCAG", "binding signal": "31100 fluorescence intensity (a.u.)"},
      {"sequence": "CCTGATTTCTAAAGAAAGCCGTCCGGTTTTAACTGAGTCTCGGAGTCACCTAGTGCAG", "binding signal": "10100 fluorescence intensity (a.u.)"},
      {"sequence": "TATTCAGGAATCTGAATTGATTGGCTGTGCTCAAGTTACTCGGAGTCACCTAGTGCAG", "binding signal": "24200 fluorescence intensity (a.u.)"},
      {"sequence": "GTTGATGGATGACATAAATTGAAGGGAAACAACCACCTCTCGGAGTCACCTAGTGCAG", "binding signal": "41500 fluorescence intensity (a.u.)"},
      {"sequence": "CTACAAACCAATCAGTTAATCCCAAGTATATAATCCTAATCGGAGTCACCTAGTGCAG", "binding signal": "4790 fluorescence intensity (a.u.)"},
      {"sequence": "ACTTGACAGCCCTAATTGATCTTATTACATGCAGAGGATCCGGAGTCACCTAGTGCAG", "binding signal": "56300 fluorescence intensity (a.u.)"},
      {"sequence": "CTGTAAATTGCAAATCTACAAGAACTCTACATGTCTCTTACGGAGTCACCTAGTGCAG", "binding signal": "4080 fluorescence intensity (a.u.)"},
      {"sequence": "ATATAGTTTCATCACAATTAAATAGAAATTTAATAGTACTCGGAGTCACCTAGTGCAG", "binding signal": "3180 fluorescence intensity (a.u.)"},
      {"sequence": "CTGATTTGCTCTCTCATCTTTATAAATATGAGCACTCGTCCGGAGTCACCTAGTGCAG", "binding signal": "19700 fluorescence intensity (a.u.)"},
      {"sequence": "GTAATCAGTGTGTGATTAATGTGTGGAGAATAGAAAGTGACGGAGTCACCTAGTGCAG", "binding signal": "7420 fluorescence intensity (a.u.)"}
    ]}
  ]
}
